# Experimental data reported in the supplement of paper PMC8748497.
# Values joined by “and” are separate entries in the source; they are usually repeats but may differ in a detail not shown here. Equal entries are not always repeated. The list shows a part of the results.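 Rule for the calls: active = fold change of at least 2 over DMSO control; inactive = below 2-fold.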 Many values rest on one well or one pass, so single values are uncertain.
# System: HEK293 ARE/NRF2-luciferase reporter
# Experiment: ARE/NRF2 luciferase reporter activity, fold change over DMSO control; higher = stronger NRF2/ARE reporter activation
# Conditions: 10 µM; 24 h
row,Compound,ARE/NRF2 luciferase reporter activity
1,CC(C)[N+]1(C)[C@@H]2CC[C@H]1C[C@@H](OC(=O)C(CO)c1ccccc1)C2 (some centres undefined),inactive: 0.998
2,CC(=O)CC(=O)CCC(=O)O,inactive: 0.362
3,O=C(O)[C@@H](S)[C@@H](S)C(=O)O,inactive: 0.976
4,CC(C)(C)CC(C)(C)c1ccc(OCCOCC[N+](C)(C)Cc2ccccc2)cc1,inactive: 0.0881
5,COc1cc([C@@H]2c3cc4c(cc3[C@@H](O[C@@H]3O[C@@H]5CO[C@@H](C)O[C@H]5[C@H](O)[C@H]3O)[C@H]3COC(=O)[C@H]23)OCO4)cc(OC)c1O,inactive: 0.0798
6,CCN(CC)CCCC(C)Nc1c2ccc(Cl)cc2nc2ccc(OC)cc12 (centres undefined),active: 2.58
7,C=C1CCC2C(CC2(C)C)C(=O)CCC1O (centres undefined),inactive: 0.821
8,CCCCCCCCNC(C)C(O)c1ccc(SC(C)C)cc1 (centres undefined),inactive: 1.89
9,OC1OC[C@@H](O)[C@H](O)[C@H]1O (some centres undefined),inactive: 0.873
10,CC(=O)[C@@]1(O)CC[C@H]2[C@@H]3C=C(Cl)C4=CC(=O)[C@@H]5C[C@@H]5[C@]4(C)[C@H]3CC[C@@]21C,inactive: 1.06
11,O=C(CCc1ccc(O)cc1)c1c(O)cc(O)cc1O,active: 2.36
12,CC1(C)CC[C@]2(C)CC[C@]3(C)C(=CC[C@@H]4[C@@]5(C)CC[C@H](OC(=O)c6ccccc6)C(C)(C)[C@@H]5CC[C@]43C)[C@@H]2C1 [beta-AMYRIN BENZOATE],inactive: 0.941
13,O=C(/C=C/C(=O)Oc1ccccc1C(=O)O)Oc1ccccc1C(=O)O,inactive: 1.05
14,O=C(O)c1cc(=O)[nH]c(=O)[nH]1,inactive: 0.894
15,OC[C@@H](O)[C@@H](O)[C@H](O)[C@@H](O)CO,inactive: 1.3
16,CCN(CC)CCOC(=O)C(c1ccccc1)C1CCCCC1 (centres undefined),inactive: 0.735
17,CC(=O)OC(C)C[N+](C)(C)C (centres undefined),inactive: 1.07
18,O=C(O)CCCc1ccccc1,inactive: 1.05 and inactive: 0.824
19,O=C([O-])c1ccccc1[O-].[Bi+3].[OH-],active: 12.6
20,CCCN(CCC)S(=O)(=O)c1ccc(C(=O)O)cc1,inactive: 0.941

row,Compound,ARE/NRF2 luciferase reporter activity
1,Cc1ccnc2c1NC(=O)c1cccnc1N2C1CC1,inactive: 0.842
2,CC(C)(Oc1ccc(C2CC2(Cl)Cl)cc1)C(=O)O (centres undefined),active: 2.74
3,CC(=O)/N=c1/sc(S(N)(=O)=O)nn1C,inactive: 1.35
4,COc1ccccc1-c1cc(=O)c2c(OC)cccc2o1,active: 3.8
5,CC(=O)OCC(=O)[C@@]1(O)CC[C@H]2[C@@H]3CCC4=CC(=O)C=C[C@]4(C)[C@H]3[C@@H](O)C[C@@]21C,inactive: 0.893
6,COc1ccnc(C[S+]([O-])c2nc3cc(OC(F)F)ccc3[nH]2)c1OC (centres undefined),inactive: 1.67
7,NC(=O)c1ccc[n+]([C@@H]2O[C@H](COP(=O)([O-])OP(=O)(O)OC[C@H]3O[C@@H](n4cnc5c(N)ncnc54)[C@H](O)[C@@H]3O)[C@@H](O)[C@H]2O)c1,inactive: 0.841
8,CC[C@@H]1C(=O)OC[C@@H]1Cc1cncn1C,inactive: 0.858
9,CN(N=O)C(=O)N[C@H]1C(O)O[C@H](CO)[C@@H](O)[C@@H]1O (mixture of isomers),inactive: 0.837
10,Cn1c(=O)[nH]c2ncn(C)c2c1=O,inactive: 1.08
11,CC(C)c1c(C(=O)Nc2ccccc2)c(-c2ccccc2)c(-c2ccc(F)cc2)n1CC[C@@H](O)C[C@@H](O)CC(=O)O,inactive: 0.676
12,N[C@@H](CO)C(=O)O,inactive: 0.929
13,CCCCC(CC)COC(=O)c1ccccc1O (centres undefined),inactive: 1.16
14,Oc1ccc(O)cc1,active: 25.2
15,CC(=O)c1ccc2c(c1)N(CCCN1CCC(CCO)CC1)c1ccccc1S2,inactive: 0.91
16,COc1cc([C@@H]2c3cc4c(cc3[C@@H](O[C@@H]3O[C@@H]5CO[C@@H](c6cccs6)O[C@H]5[C@H](O)[C@H]3O)[C@H]3COC(=O)[C@H]23)OCO4)cc(OC)c1O,inactive: 0.0389
17,CC(C)C1=CC2=CC[C@@H]3[C@](C)(CCC[C@@]3(C)C(=O)O)[C@H]2CC1,inactive: 1.77
18,CC(C)(C)C(=O)OCOP(=O)(COCCn1cnc2c(N)ncnc21)OCOC(=O)C(C)(C)C,inactive: 0.4
19,C[C@]12C=CC(=O)C=C1CC[C@H]1[C@@H]3C[C@@H](O)[C@](O)(C(=O)CO)[C@@]3(C)C[C@H](O)[C@@]12F,inactive: 0.944
